# From PubChem BioAssay AID1347155 (National Center for Advancing Translational Sciences (NCATS), 2019)
# Inconclusive results are not listed. The call rests on the fitted dose curve; in most records, active means well fitted inhibition curve with a large enough effect; inconclusive means small, poorly fitted or top-dose-only effect; inactive means no such curve, though single readings can be large or run the other way. A structure can be active in one record and inactive in another. Certain results were filed several times, with different values. They are shown here; other results are not. There may be further records. Values that stand side by side are repeats across runs, samples, wells, individuals or studies. Marks in square brackets tell the records apart. The letters are not those of the source and start again with each entry.
# System: Zika virus NS2B-NS3 protease (linked)
# Test: Optimization screen NINDS Rhodamine qHTS for Zika virus inhibitors: Linked NS2B-NS3 protease assay
# Description: Avindra Nath, Ph.D., National Institute of Neurological Disorders and Stroke (NINDS), Bethesda, MD
# Radhakrishnan Padmanabhan, Ph.D., Georgetown University (GU), Washington D.C.
# Zika Virus causes congenital defects, including microcephaly and is associated with Guillain-Barre syndrome, eningoencephalitis and myelitis in infected adult. […] Using a target-based approach, we hope to establish a screening paradigm to uncover novel, cell-active NS2B-NS3 protease (Zika Virus) specific inhibitors from NCATS' collection of small molecules using qHTS.
# Four assay panel was created to identify potential Zika Virus inhibitors. […]
# Briefly, 3 microL of enzyme (25 nM final concentration), in assay buffer (10 mM Tris-HCl pH 8.0 with 0.01% Tween 20) were dispensed into a 1,536-well solid-bottom black plate (Greiner Bio One, Monroe, NC). […] Plates were then immediately read on a ViewLux High-throughput CCD imager (PerkinElmer, Waltham, MA) equipped with FITC fluorescence optics (480(20) nm excitation, 540(25) nm emission), then incubated (room temperature, protected from light) for 15 minutes (~15% conversion). The change in fluorescence intensity over the 15-minute reaction period was normalized against no-inhibitor and no-enzyme controls and the resulting percent inhibition data were fitted to a 4-parameter Hill equation. […]
compound,measurement,value
CC[C@H](C)[C@H]1O[C@]2(CC[C@@H]1C)C[C@@H]1C[C@@H](C/C=C(\C)[C@@H](O[C@H]3C[C@H](OC)[C@@H](O[C@H]4C[C@H](OC)[C@@H](O)[C@H](C)O4)[C@H](C)O3)[C@@H](C)/C=C/C=C3\CO[C@@H]4[C@H](O)C(C)=C[C@@H](C(=O)O1)[C@]34O)O2,Potency,inactive [sample A] and active: 27.8 µM [sample B]
